The record followed here is PMC6919601, “Identification of Plasmodium dipeptidyl aminopeptidase allosteric inhibitors by high throughput screening” (PLoS ONE, 2019).

Screen size: about 110,000 compounds; about 230 (0.21%) showed an effect of 50% or more. This is one part of the list.
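Further: 30 min substrate incubation versus DMSO and 10 µM JCP410 controls.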

In the assay the target is DPAP1 (Plasmodium falciparum, UniProt Q8IIJ9). Put plainly: primary screen, percent inhibition; read by cleavage of a fluorogenic dipeptide substrate; higher = more effect of the substance. On the set-up: species or system P. falciparum D10 trophozoite lysates; single well.
DPAP1, sequence (Q8IIJ9 whole entry, looked up): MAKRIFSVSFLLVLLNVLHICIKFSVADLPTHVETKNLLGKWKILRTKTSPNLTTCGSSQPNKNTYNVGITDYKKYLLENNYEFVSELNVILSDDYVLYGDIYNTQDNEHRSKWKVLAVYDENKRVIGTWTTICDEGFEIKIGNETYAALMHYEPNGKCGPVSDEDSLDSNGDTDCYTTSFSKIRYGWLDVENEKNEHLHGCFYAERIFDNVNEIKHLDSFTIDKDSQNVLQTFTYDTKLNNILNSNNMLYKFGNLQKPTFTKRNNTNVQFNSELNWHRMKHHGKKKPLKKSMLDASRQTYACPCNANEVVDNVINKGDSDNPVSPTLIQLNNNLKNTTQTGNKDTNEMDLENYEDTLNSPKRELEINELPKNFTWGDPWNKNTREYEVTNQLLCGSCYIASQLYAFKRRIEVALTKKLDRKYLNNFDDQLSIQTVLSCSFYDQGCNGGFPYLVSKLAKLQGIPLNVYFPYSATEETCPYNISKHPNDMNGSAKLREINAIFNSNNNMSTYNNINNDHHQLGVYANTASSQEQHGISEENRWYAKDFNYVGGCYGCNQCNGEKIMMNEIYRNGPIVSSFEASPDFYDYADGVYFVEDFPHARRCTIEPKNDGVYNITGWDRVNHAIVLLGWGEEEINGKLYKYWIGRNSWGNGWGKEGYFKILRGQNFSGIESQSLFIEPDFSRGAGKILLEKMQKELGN
Consider `CC(C)(C)c1ccc(OCC(=O)Nc2ccc(Cl)cn2)cc1`, for which the “% Inhibition @ 10 uM” value is on record as 17.3%. The figure for `CCOc1ccc(S(=O)(=O)/N=C2/C=C(Sc3nc[nH]n3)C(=O)c3ccccc32)cc1` is 4.96%. The figure for `O=C1CN(C(=O)c2ccccc2)C(c2ccccc2)c2cc(Br)ccc2N1` (stereo not shown) is 0.0345%. To `CCc1ccc(C2C(C(=O)OC)=CN(Cc3ccc(C)cc3)C=C2C(=O)OC)s1` belongs -10.9%.

With `OC12CC3CC(C1)C(N1CCNCC1)C(C3)C2` (stereo not shown), the “% Inhibition @ 10 uM” value was determined as 1.43%. The figure for `COc1cc(Br)c(CNC2CCCC2)cc1OC` is 1.43%; for `Cc1nn(C)cc1CNC(=O)c1cnn2c(C(F)(F)F)cc(-c3ccccc3)nc12` it is 5.31%; for `CCC(C)(C)C1CCc2c(sc(N)c2C#N)C1` (stereo not shown) it is 14.2%. To `CC(C)(C)N(CCNS(=O)(=O)c1csc(C(N)=O)c1)Cc1ccco1` belongs -6.47%. The figure for `CCCCC(=O)Nc1nnc(S(=O)(=O)N(CC)Cc2ccc(OC)cc2)s1` is 3.72%; for `CCc1nn2c(=O)cc(COc3ccc(/C=C4/N=C(c5cccc(C)c5)OC4=O)cc3)nc2s1` it is -7.65%.

For the molecule `CCOC(=O)c1sc(NC(=O)COc2ccc(Cl)cc2)c(C(=O)OCC)c1C`, the “% Inhibition @ 10 uM” value stood at 7.31%. To `COc1ccccc1C(=O)NC1(C(F)(F)F)C(=O)Nc2c1c(=O)[nH]c(=O)n2-c1ccc(C)cc1` (stereo not shown) belongs 4.39%; to `O=C(CN1CCN(c2ccccc2)CC1)Nc1cc(C(F)(F)F)ccc1Cl`, -3.69%; to `CC(C)(C)C1CCC2(CC1)N=C(c1ccccc1)C(=O)N2` (stereo not shown), 4.63%. The figure for `O=C(NC1CCN(Cc2ccccc2)CC1)c1ccccc1F` is 0.177%; for `Cc1ccc(-n2ncc3c(NCCN(C)C)ncnc32)cc1C` it is 4.61%; for `COc1ccc(OC)c(C2C(C#N)=C(N)N(c3nc[nH]n3)C3=C2C(=O)CC(C)(C)C3)c1` (stereo not shown) it is 2.38%. To `CCOCCCNC(=O)c1ccc(CS(=O)(=O)Cc2cccc(C)c2)o1` belongs -1.79%; to `N#CC1=C(N)OC2=C(C(=O)CC(c3ccccc3)C2)C1c1ccc(F)cc1F` (stereo not shown), -4.94%; to `COc1ccc(Cl)cc1NC(=O)c1cnn2c1NC(c1ccco1)CC2C(F)(F)F` (stereo not shown), 9.33%. Regarding `Oc1cc(CSc2nnnn2-c2ccccc2)nc2ncnn12`, the “% Inhibition @ 10 uM” value was -8.55%. The figure for `Cc1nc2c(c(C)nn2C(C)(C)C)c(C)c1CCC(=O)N1CCN(c2ccccn2)CC1` is -4.24%. As to `O=C(O)COc1ccc(NC(=O)COc2ccccc2Cl)cc1`, the “% Inhibition @ 10 uM” value is recorded as -3.85%. The figure for `O=C(NCCCO)C(=O)NCCc1ccc(Cl)cc1` is -6.95%. To `CC1CCCC(NC(=O)C2CCCN(C(=O)c3cc4sccc4n3C)C2)C1C` (stereo not shown) belongs -9.48%. The figure for `O=C(CCN1CCCCCC1)c1ccccc1` is -0.0953%. Regarding `CSC1=C(C#N)C(c2ccccc2C)CC(=O)N1` (stereo not shown), the “% Inhibition @ 10 uM” value is recorded as 0.673%. The figure for `COc1ccc(C2NC(C(=O)O)Cc3c2[nH]c2ccccc32)cc1O` (stereo not shown) is 1.66%; for `CC1=C(C(=O)OCCc2ccccc2)C(c2ccccc2Cl)NC(=O)N1` (stereo not shown) it is -0.436%. To `CCO/C(O)=C1/C(C)=NC2=C(C(=O)CC(C)(C)C2)C1c1ccc(SC)cc1` (stereo not shown) belongs -3.09%; to `CCOc1ccc(-c2cc(NC(=O)c3nn(C)c4c3COc3ccccc3-4)on2)cc1OCC`, -1.72%; to `CS(=O)(=O)C1=NSC2=NC(=O)/C(=C\c3ccc(OCc4ccc5c(c4)OCO5)cc3)C(=N)N21`, 5.06%.

For the molecule `CCOC(=O)c1c(NC(=O)CNCc2ccccc2)sc2c1CCCC2`, the “% Inhibition @ 10 uM” value was -3.92%. The figure for `COc1ccc(/C=C2\C=C(c3ccc(Cl)cc3)OC2=O)c(C)c1` is 3.72%; for `CCCCn1c(-c2ccc(OC)c(OC)c2)nc2ccccc21` it is 2.73%; for `COc1cccc(C2CC(=O)NC(SCC(N)=O)=C2C#N)c1` (stereo not shown) it is 0.673%.

Regarding `C=CCNCc1nc2ccccc2c(=O)n1-c1ccc(OCC)cc1`, the “% Inhibition @ 10 uM” value is listed as 1.94%. The figure for `COc1ccc2nc3c(nc2c1)C(=O)c1ccccc1C3=O` is -1.72%. The figure for `O=C1CCC(=O)N1c1ccc(Oc2ccc(Cl)cc2Cl)cc1` is -5.11%. The figure for `O=C(c1cc2ccccc2oc1=O)N(Cc1ccccc1)C1CCS(=O)(=O)C1` (stereo not shown) is -1.33%; for `COc1cc2c(cc1OC)C(C(=O)NCCCN1CCN(C)CC1)C1c3ccccc3CCN1C2=O` (stereo not shown) it is -1.54%; for `COc1ccc(NC(=O)C2CC3CCC2C3)cc1OC` (stereo not shown) it is 0.219%.

As for `Cc1ccc(-c2noc(CCC(=O)NC3CCCc4ccccc43)n2)cc1` (stereo not shown), the “% Inhibition @ 10 uM” value amounted to 0.738%. The figure for `COc1ccc(C)cc1N(CC(=O)Nc1ccc(NC(C)=O)cc1)S(=O)(=O)c1ccccc1` is 1.71%. To `CCN1CCC(N2CCN(C/C=C/c3ccccc3)CC2)CC1` belongs 3.19%; to `CCCCOc1ccc(S(=O)(=O)N2CCC(C(N)=O)CC2)cc1`, 5.03%; to `CCOc1ccc(N(CC(=O)N2CCC(C)CC2)S(=O)(=O)c2ccc(C)cc2)cc1`, 2.84%. Turning to `COc1ccc(/N=C2\SC(C(=O)Nc3ccccc3OC)CC(=O)N2C)cc1` (stereo not shown), the “% Inhibition @ 10 uM” value is 0.385%.
